From PubChem BioAssay AID360 (National Center for Advancing Translational Sciences (NCATS), 2006)
Screen size: about 48,000 compounds; about 550 (1.1%) were called active. Another 4% or so got no clear call; they are omitted. No stated cut-off is given here; in the data, active means potency below about 15 µM; inconclusive means mostly about 16 µM to 33 µM; inactive means weaker than that. This is one part of the list.

biological target: Lysosomal acid glucosylceramidase (Homo sapiens) (UniProt P04062); assay: Glucocerebrosidase; conditions: purified enzyme, resorufin glucoside fluorescence (screen aimed at inhibitors), 20 min;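 further: the screen sought inhibitors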
Sequence of UniProt P04062 (P04062 whole entry, looked up): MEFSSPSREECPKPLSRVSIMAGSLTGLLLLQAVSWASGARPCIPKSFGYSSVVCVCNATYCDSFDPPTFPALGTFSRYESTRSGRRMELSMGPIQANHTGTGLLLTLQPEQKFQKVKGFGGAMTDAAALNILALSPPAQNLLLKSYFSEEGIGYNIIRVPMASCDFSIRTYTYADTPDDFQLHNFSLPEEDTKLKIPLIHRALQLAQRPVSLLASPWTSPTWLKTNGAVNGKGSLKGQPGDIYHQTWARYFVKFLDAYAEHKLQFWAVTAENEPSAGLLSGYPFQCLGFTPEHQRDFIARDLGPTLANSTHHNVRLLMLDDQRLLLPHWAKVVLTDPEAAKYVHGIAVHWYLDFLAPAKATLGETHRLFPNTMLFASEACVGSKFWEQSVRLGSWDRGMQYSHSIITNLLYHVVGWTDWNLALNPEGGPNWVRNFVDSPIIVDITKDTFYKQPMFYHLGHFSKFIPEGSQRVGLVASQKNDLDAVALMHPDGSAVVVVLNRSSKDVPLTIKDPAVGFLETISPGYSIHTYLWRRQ
Outline: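 Wild-type enzyme at 0.2 nM final in 50mM citric acid/KH2PO4, 10mM sodium taurocholate, 0.01% tween-20, pH 5.9, with resorufin beta-D-glucopyranoside at 30 uM final. Compounds titrated, 20 min at RT, red fluorescence read; AC50 from titration.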
Potency means the concentration at half of the fitted maximal effect.

Potency, inactive:
O=C(CS(=O)(=O)Cc1ccccc1)NCC1CCCO1 (stereo not given) > 76.9 µM, CC(C)c1nc2oc3c(N4CCNCC4)ncnc3c2c2c1CCC2 > 76.9 µM, Cc1ccc(NC2=NCC(=O)N2Cc2ccc3c(c2)OCO3)cc1 > 76.9 µM, COCc1nnc(NC(=O)c2ccc(S(=O)(=O)N(C)C3CCCCC3)cc2)o1, CCOC(=O)N1CCN(C(=O)c2ccc(CNS(=O)(=O)c3ccc(OC)cc3)cc2)CC1 > 76.9 µM, Cc1ccc2c(c1)c1c3n2CCN(C(=O)Cn2c(-c4ccccc4)noc2=O)C3CCC1 (stereo not given) > 76.9 µM, Cc1nn(C(=O)c2cccs2)c(C)c1CN1C(=O)c2ccccc2C1=O > 76.9 µM, CC(C)c1nc(SCC(=O)NCc2ccccc2)n[nH]1 > 76.9 µM, O=C(c1ccco1)N1CCN(C(c2ccccc2Cl)c2nnnn2Cc2ccco2)CC1 (stereo not given) > 76.9 µM, Cc1cc(=O)c2ccccc2s1 > 76.9 µM, CCn1cc(Br)c(C(=O)Nc2ccc(C(=O)OC(C)C)cc2)n1 > 76.9 µM, COc1cc(C2Nc3cccc4cccc(c34)N2)ccc1OC(C)=O > 76.9 µM, O=C(O)CN1C(=O)C2(OCCCO2)c2ccccc21 > 76.9 µM, Cc1nccn1-c1c2c(c(C#N)c3nc4ccccc4n13)CCCC2 > 76.9 µM, O=c1cc(-c2ccc(Cl)c(Cl)c2)[nH][nH]1 > 76.9 µM, CN(C)S(=O)(=O)c1ccc(C(=O)Nc2nnc(Cc3ccccc3)s2)cc1 > 76.9 µM, COC(=O)CN1C(=O)N(c2ccccc2)C(N(O)C(=O)Nc2ccccc2)C1(C)C (stereo not given) > 76.9 µM, N#CC1=C(N)Oc2n[nH]c(-c3ccc(F)cc3)c2C1c1cccc(OC(=O)N2CCOCC2)c1 (stereo not given) > 76.9 µM, CC1(C)NC(=O)N(CCOc2cccc(Oc3ccccc3)c2)C1=O > 76.9 µM, COc1cc2c(cc1OC)C1=C(C#N)COCN1CC2 > 76.9 µM, Cc1ccc(OCCn2nc3ccccc3n2)c(C)c1 > 76.9 µM, Cc1nc2ccccc2c(=O)n1CC(=O)N1CCOCC1 > 76.9 µM, O=C(O)CCC(=O)N1CCN(c2ccc(C(=O)c3ccc(F)cc3)cc2)CC1 > 76.9 µM, Cn1nnnc1SCC(=O)N1c2ccccc2Sc2ccccc21, Cc1ccc2cc(C(c3nnnn3C(C)(C)C)N3CCCC3)c(=O)[nH]c2c1C (stereo not given) > 76.9 µM, COc1ccc(S(=O)(=O)N2CCCC2C(=O)Nc2nc3c(s2)CCCC3)cc1 (stereo not given) > 76.9 µM, Cc1ccc(CSC2=Nc3ccccc3C3=NC(CC(=O)NCc4ccco4)C(=O)N23)cc1 (stereo not given) > 76.9 µM, O=C(CNC(=O)c1ccccc1)NC1(C(=O)NC2CCCC2)CCCCC1 > 76.9 µM, CCOc1ccc(CNC(=O)NS(=O)(=O)c2ccc(OC)cc2)cc1 > 76.9 µM, O=C(CCCCCN1C(=O)c2ccccc2C1=O)NC1CCCC1 > 76.9 µM, COC(=O)CCP(=O)(O)Cc1ccccc1CP(=O)(O)CCC(=O)OC > 76.9 µM, C=C(C)CSc1nnc([C@@H](NC(=O)OC(C)(C)C)C(C)CC)o1 (stereo not given in full) > 76.9 µM, CCCOc1ccc(/C(O)=C2\C(=O)C(=O)N(CCCN(C)C)C23C(=O)N(C)c2ccccc23)cc1 (stereo not given) > 76.9 µM, CCOC(=O)C1CCCN(C(=O)CS(=O)(=O)Cc2ccccc2)C1 (stereo not given) > 76.9 µM, O=C(Cn1c(CN2CCCCC2)nc2ccccc2c1=O)Nc1ccccc1 > 76.9 µM, CCC(=O)Nc1ccc(S(=O)(=O)c2ccc(NC(=O)CC)cc2)cc1 > 76.9 µM, C=CCn1c(C)cc(C(=O)COC(=O)C2CC(=O)N(Cc3ccccc3)C2)c1C (stereo not given) > 76.9 µM, O=C(NCc1ccc2c(c1)OCO2)C1CCN(C(=O)Nc2ccc(Cl)cc2)CC1 > 76.9 µM, COc1cc(S(=O)(=O)N2CCOCC2)ccc1NC(=O)c1cc2c(s1)CCC2 > 76.9 µM, CCCOc1cc(CC(=O)NCc2ccco2)ccc1OC > 76.9 µM, CCOC(=O)NC(=O)CSc1nc(C)cc(C(F)(F)F)c1C#N > 76.9 µM, COC(=O)Nc1nn(Cc2ccccc2F)cc1Br > 76.9 µM, COc1ccc(CN2CCN(c3cc(C)nc4c5c(C)cc(C)nc5nn34)CC2)cc1F > 76.9 µM, O=C(NCCOC(=O)c1cccs1)c1cccnc1 > 76.9 µM, CCc1nnc(NC(=O)CSc2nnc3ncccn23)s1 > 76.9 µM, COCCNC(=O)c1cc(-c2ccc(OC)c(OC)c2)on1 > 76.9 µM, COc1ccc(C2CC(C(F)(F)F)n3nc(C(=O)N(C)Cc4cn(C)nc4C)c(Cl)c3N2)cc1 (stereo not given) > 76.9 µM, O=C(Nc1ccc(O)c(C(=O)O)c1)c1ccc2c(c1)C(=O)N(CC1CCCO1)C2=O (stereo not given) > 76.9 µM, O=C(CSc1nnc(-c2ccncc2)n1C1CCCCC1)Nc1cccc(O)c1 > 76.9 µM, Cc1ccc(Nc2nc(N)nc(CSc3nccn3C)n2)c(C)c1 > 76.9 µM, CCn1cc2c(c1-c1cccc(C)c1)c(=O)n(C)c(=O)n2C > 76.9 µM, Cc1ccc(S(=O)(=O)Nc2ccc3nc(-c4cccn4C)[nH]c3c2)cc1 > 76.9 µM, COc1ccc2c(c1)C1(Nc3ccccc3-c3nc4ccccc4n31)C(=O)N2 (stereo not given) > 76.9 µM, CCc1nnc(NC(=O)C2CC(=O)N(c3ccc(C)cc3)C2)s1 (stereo not given) > 76.9 µM, CCOC(=O)C(C)n1cnc2c(oc3ccccc32)c1=O (stereo not given) > 76.9 µM, CCOC(=O)C(CC)Sc1nnc2n1C(C)(C)Cc1ccccc1-2 (stereo not given) > 76.9 µM, Cc1cc(C)c2c(n1)nn1c(-n3ccnc3)cc(C)nc21 > 76.9 µM, COc1ccc(C(=O)Nc2cc(Cl)cc(Cl)c2)c(OC)n1 > 76.9 µM, CCCC1CCC(C(=O)Nn2cnc3ccccc3c2=O)CC1 (stereo not given) > 76.9 µM, COc1ccc(C(=O)OCC(=O)NCc2ccco2)cc1OC > 76.9 µM, Cc1ccc(-c2nc(C3CCN(S(C)(=O)=O)CC3)no2)cc1 > 76.9 µM, COc1ccc(-c2c3c(=O)n(C)c(=O)n(C)c3cn2-c2ccccc2)cc1 > 76.9 µM, CCN(CCCNC(=O)c1cn(CC)c2ccc(S(=O)(=O)N(C)C)cc2c1=O)c1cccc(C)c1 > 76.9 µM, Cc1cc(C)c(-c2cc(NC(=O)CSc3nncn3C)n(-c3ccccc3)n2)cc1C > 76.9 µM, Cc1ccc(-c2nc(C)sc2CC(=O)NCc2ccco2)cc1 > 76.9 µM, Cc1ccc(C(=O)COC(=O)CNC(=O)c2ccco2)cc1 > 76.9 µM, Cc1ccc(S(=O)(=O)N2CCCC2C(=O)NCCc2nc3ccccc3[nH]2)cc1 (stereo not given) > 76.9 µM, C/C(Cl)=C/Cn1c(NCCCn2ccnc2)nc2c1c(=O)[nH]c(=O)n2C > 76.9 µM, COc1ccc(S(=O)(=O)Nc2ccc3c(c2)OCO3)cc1Cl, COC(=O)c1cccc(CSc2nnc(-c3ccco3)n2-c2ccccc2)c1 > 76.9 µM, O=C(Nc1ccccc1)Nc1cccc2cccnc12 > 76.9 µM, COc1ccccc1CC(=O)NC1CC(C)(C)NC(C)(C)C1 > 76.9 µM, O=C(O)c1cc2c([nH]c1=O)CCCC2 > 76.9 µM, c1ccc(OCc2nc(-c3ccccc3)no2)cc1 > 76.9 µM, CC1Cc2ccccc2N1C(=O)CSc1nc(-c2ccco2)cc(C(F)(F)F)n1 (stereo not given) > 76.9 µM, COc1ccc(OC)c(C(=O)CSc2nnc(-c3ccc(OC)c(OC)c3)o2)c1 > 76.9 µM, O=C(CSc1n[nH]c(C2CCCC2)n1)NC1CCCC1 > 76.9 µM, CCn1c(=O)cc(OCC(=O)Nc2ccc(C)cn2)c2ccccc21 > 76.9 µM, CSc1ccccc1NC(=O)c1cccnc1 > 76.9 µM, COc1ccc(CN2C(=O)c3ccccc3C2C(=O)NCc2cccnc2)c(OC)c1 (stereo not given) > 76.9 µM, CCOC(=O)c1cnc(-c2ccccc2)nc1N > 76.9 µM, O=C(NCCN1CCOCC1)C1CCC(=O)N1C1CCCCC1 (stereo not given) > 76.9 µM, CC(=O)NC1C2CN3CCN(C2)CC1(Cc1ccccc1)C3 (stereo not given) > 76.9 µM, Cc1cc(C)n(-c2ncnc3c2oc2ccccc23)n1 > 76.9 µM, O=C(CC1CCCCC1)c1c(O)c2ccccc2oc1=O > 76.9 µM, c1ccc2c(c1)CNc1ccccc1C2 > 76.9 µM, Cc1cc(Nc2cccc(F)c2)nc(-c2ccccc2O)n1, Cc1ccc(C)c(OCC(=O)Nc2nonc2NC(=O)COc2cc(C)ccc2C)c1 > 76.9 µM, COC(=O)c1ccc(OC)c(CSc2nnc(COc3cccc(C)c3)o2)c1 > 76.9 µM, Cc1ccc2[nH]c(=O)c(CN(Cc3ccco3)C(=O)c3cccs3)cc2c1 > 76.9 µM
